Screen size: about 310,000 compounds; about 14,000 (4.5%) showed an effect of 50% or more. The effect is printed as a negative number. The list shows a part of the results.
These compounds were tested against human ether-à-go-go-related gene (hERG) potassium channel (human, UniProt Q12809) (assay: primary screen, population patch clamp on CHO cells stably expressing hERG).
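Also: peak tail current of the secondary pulse compared with the same well before compound.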

Sequence of human ether-à-go-go-related gene (hERG) potassium channel (Q12809 whole entry, looked up): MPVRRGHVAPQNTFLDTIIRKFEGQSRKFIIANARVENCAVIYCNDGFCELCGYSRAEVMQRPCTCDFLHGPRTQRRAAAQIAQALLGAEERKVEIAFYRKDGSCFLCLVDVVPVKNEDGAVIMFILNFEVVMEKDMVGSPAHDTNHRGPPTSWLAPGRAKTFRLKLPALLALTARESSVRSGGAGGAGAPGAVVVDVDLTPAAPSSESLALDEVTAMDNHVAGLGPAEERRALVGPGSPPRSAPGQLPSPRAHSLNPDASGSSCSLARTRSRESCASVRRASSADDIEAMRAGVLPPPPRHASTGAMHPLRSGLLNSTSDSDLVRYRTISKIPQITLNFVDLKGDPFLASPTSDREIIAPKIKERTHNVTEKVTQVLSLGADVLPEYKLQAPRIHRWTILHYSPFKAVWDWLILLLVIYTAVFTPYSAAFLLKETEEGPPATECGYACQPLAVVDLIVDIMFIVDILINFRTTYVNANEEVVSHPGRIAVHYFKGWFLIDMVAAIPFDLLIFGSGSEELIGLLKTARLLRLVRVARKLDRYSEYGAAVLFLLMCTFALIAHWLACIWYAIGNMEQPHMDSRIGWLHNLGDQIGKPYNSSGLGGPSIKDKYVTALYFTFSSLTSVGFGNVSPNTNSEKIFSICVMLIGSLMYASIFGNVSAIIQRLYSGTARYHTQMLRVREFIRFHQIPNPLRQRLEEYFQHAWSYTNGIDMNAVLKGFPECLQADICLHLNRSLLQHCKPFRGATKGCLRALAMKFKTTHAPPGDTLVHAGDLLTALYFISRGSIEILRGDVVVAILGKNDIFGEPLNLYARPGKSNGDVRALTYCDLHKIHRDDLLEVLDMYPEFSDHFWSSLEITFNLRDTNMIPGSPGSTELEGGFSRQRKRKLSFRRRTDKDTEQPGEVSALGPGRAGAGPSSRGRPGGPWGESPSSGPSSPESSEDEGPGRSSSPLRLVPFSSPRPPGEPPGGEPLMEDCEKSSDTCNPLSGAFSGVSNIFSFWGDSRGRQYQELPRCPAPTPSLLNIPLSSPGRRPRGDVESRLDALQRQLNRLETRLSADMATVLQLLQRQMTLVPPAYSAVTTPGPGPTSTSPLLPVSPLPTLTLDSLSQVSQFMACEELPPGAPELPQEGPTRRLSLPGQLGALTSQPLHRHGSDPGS

SMILES	hERG current change (%, negative = inhibition) at 10uM
O=C(NCCN1C(=O)S/C(=C/c2cccnc2)C1=O)C1=NN(c2ccccc2)C(=O)CC1	-40.2%
Cc1cc(C(=O)c2ccc3ccccc3c2)c(C)o1	2.09%
CCOC(=O)c1ccccc1NC(=O)c1cccs1	9.27%
Cc1cccc(N(C)S(=O)(=O)c2ccc3c(c2)CCC(=O)N3)c1	-21.7%
CC(CNC(=O)c1ccccc1Cl)c1ccccc1 (centres unmarked)	12.6%
COc1ccc(N2CCc3c(C)nc4c(OC)cc(OC)cc4c32)cc1	-75%
CCN1CCN(C(=O)CN2C(=O)c3cccc4cccc2c34)CC1	-1.46%
Cc1cccc(C2=NN(c3ccc(Br)cc3)[C@@H](C(=O)N3CCOC3=O)[C@@H]2c2ccc(F)cc2)c1	27.8%
Fc1ccc(NC(=S)NCCN2CCOCC2)c(F)c1F	13.8%
O=C(Nc1ccccc1)c1ccc2c(c1)CCN2S(=O)(=O)c1ccccc1	7.77%
O=C(NCCCc1ccccc1)C1CCC(=O)N(CCc2ccc(Cl)cc2)C1 (centres unmarked)	-79.8%
COc1ccc(CNC(=O)c2cccc(N(C)C)c2)cc1	5.01%
COC(=O)c1cccc(C23CC4(C2)[C@H](CN(Cc2cccnc2)[C@@H]4c2ccccc2)C3c2ccc(Cl)nc2)c1 (some centres unmarked)	-12.7%
Cc1cc(C)n2c(Nc3ccc4c(c3)OCCO4)c(-c3ccc(C)o3)nc2n1	-35.5%
CCCC1=NN(c2ccc([N+](=O)[O-])cc2)C(=O)/C1=C/N(C)C	-2.3%
Cc1ccc(CNC(=O)C2CCN(S(=O)(=O)c3cccs3)CC2)o1	-27.6%
Cc1ccc(C(=O)N2CCN(c3ccc(NC(=O)c4cccnc4)cc3)CC2)cc1	-38.8%
Cc1cc(C)cc(NC(=O)CSc2nnc(-c3ccccc3C)o2)c1	3.37%
CC1=NN2C(=N)/C(=C\c3cc(C)n(-c4ccc(C)cc4)c3C)C(=O)N=C2S1	2.9%
CCOC(=O)CSc1nc2ccc(N3CCOCC3)cc2c(=O)n1Cc1ccc2c(c1)OCO2	-2.13%
COc1ccc(C23NCCN2C(=O)c2ccccc23)cc1 (centres unmarked)	19.4%
COc1ccc(C(=O)Nc2ncccc2C)cc1S(=O)(=O)N1CCCc2ccccc21	9.01%

SMILES	hERG current change (%, negative = inhibition) at 10uM
C#CCSc1nnc(-c2ccccc2)c(=O)[nH]1	8.18%
CCCS(=O)(=O)c1nc(S(=O)(=O)c2ccc(C)cc2)c(N2CCCC2)s1	5.57%
COc1cccc(CC2(CO)CCCN(C/C=C/c3ccccc3OC)C2)c1 (centres unmarked)	-73.2%
COc1cc2nc(C3CCC3)n(N)c(=O)c2cc1OC	2.76%
O=C(N/N=C/c1ccco1)c1cc(-c2ccc(Cl)cc2)n[nH]1	-3.61%
COC(=O)[C@@]1(Cc2ccc(F)cc2)[C@H]2c3cc(C(=O)N4CCCC4)n(CCc4c[nH]c5ccc(OC)cc45)c3C[C@H]2CN1C(=O)c1ccccc1	3.92%
COC(=O)c1c(NC(=O)CSc2nc(-c3ccco3)cc(C(F)(F)F)n2)sc2c1CCCC2	16.2%
O=c1sc2ccccc2n1Cc1ccccc1	-12.7%
CC1=CC2=NC(=O)/C(=C/c3coc4ccccc4c3=O)C(=N)N2O1	-6.79%
Cc1ccc(S(=O)(=O)NC(CC(=O)NCC2CCCO2)c2ccco2)cc1 (centres unmarked)	24.9%
O=C1NC(=O)N(c2ccccc2)C(=O)/C1=C\c1ccc2c3c(cccc13)CC2	-20.4%
COc1ccc(CC(=O)OCC(=O)NCCNC(=O)COC(=O)Cc2ccc(OC)cc2)cc1	-9.61%
CN(CC1COc2ccccc2O1)C(=S)Nc1ccccc1F (centres unmarked)	-1.05%
Cc1nc(NCc2ccccn2)c2ccccc2n1.Cl	1.45%
NC(=NCCc1c[nH]c2ccccc12)NC(=O)c1ccc(Cl)cc1	-2.18%
COc1cccc(OCCc2c(C)n[nH]c2C)c1.Cl	2.05%
O=C(CSc1nc(Nc2ccccc2)nc(N2CCOCC2)n1)NC1CCCCC1	-3.3%
Cc1ccc(NC(=O)[C@H](NC(=O)[C@@H]2Cc3ccccc3CN2)c2ccccc2)cc1C	-37.9%
O=C(CNC(=O)c1ccccc1Br)N/N=C/c1ccccc1O	16.1%
COc1cccc(CNC(=O)CSCC(=O)Nc2ccc(C)cc2)c1	-14.2%
CCCN(c1ccccc1C(=O)O)S(=O)(=O)c1ccc2c(c1)n(C)c(=O)n2C	19.8%
COc1ccc2c(c1)c(C(=O)CN1CCc3ccccc3C1)c(C)n2C	-10.6%

SMILES	hERG current change (%, negative = inhibition) at 10uM
CCN1C(=O)C2(C(C#N)=C(N)Oc3n[nH]c(C(C)C)c32)c2ccccc21 (centres unmarked)	-10.4%
Oc1ccc(-c2n[nH]c(=S)n2-c2ccc3c(c2)OCCO3)cc1	13.9%
Cl.FC(F)(F)c1ccc2c(c1)N(CCCN1CCN(CCCl)CC1)c1ccccc1S2	-8.34%
O=C(Nc1cccc(F)c1)N1CC=C(n2c(=O)[nH]c3ccccc32)CC1	7.78%
CCN(Cc1ccc2c(c1)OCCO2)C(=O)CSc1nc(C)nc2sc(C)c(C)c12	-21.8%
COc1ccc(/C=C/C(=O)c2ccc(O)cc2)cc1	-0.228%
O=C(CSc1ccc(-c2ccccc2)nn1)N1CCN(c2ccccc2)CC1	-6.59%
COc1ccc(NC(=O)CN2C(=O)/C(=C3\SC(=S)N(C4CCS(=O)(=O)C4)C3=O)c3ccccc32)cc1 (centres unmarked)	13.8%
Cc1cc(-n2ccnc2)n2c(nc3ccccc32)c1C#N	13.7%
CN(C)S(=O)(=O)Nc1cc(F)cc(F)c1	21.1%
COc1ccccc1OCc1ccc(C(=O)NCC(C)C)o1	-21%
O=C(NC1CCCCC1)C(c1ccc2ncccc2c1)N(Cc1ccc2c(c1)OCO2)C(=O)c1cccs1 (centres unmarked)	-37.1%
COc1ccc(C(CNC(=O)C(C)c2ccc3cc(OC)ccc3c2)N(C)C)cc1 (centres unmarked)	-7.44%
CC(C)(C)c1ccc(C(=O)NCCC(=O)NCc2cccs2)cc1	16.3%
O=C(Cc1ccccc1)Oc1ccc([N+](=O)[O-])cc1	15.6%
CCOC(=O)C1=NNC(C(=O)c2ccc(C)cc2)C1c1ccc(OC)cc1 (centres unmarked)	-15.5%
Cc1cc(OCC(=O)NNC(=O)CCc2ccccc2)ccc1Br	17.6%
CCCOC(=O)C1=C(C)NC2=C(C(=O)CCC2)C1c1cccc(OC)c1OC (centres unmarked)	0.437%
CC(C)CN(C(=O)c1ccco1)C1CCS(=O)(=O)C1 (centres unmarked)	-3%
CCC(C)[C@H](NC(=O)NCc1ccccc1)C(=O)O (some centres unmarked)	3.48%
O=S(=O)(c1cccc(-n2cnnn2)c1)N1CCOCC1	-14.9%
C=CCNC(=O)CC12CC3CC(C1)CC(CC(=O)NCC=C)(C3)C2	19.4%

SMILES	hERG current change (%, negative = inhibition) at 10uM
Cc1ccc(NC(=O)CN(C)C(=O)CCC(=O)N2CCOCC2)cc1	8.36%
CN(C)S(=O)(=O)c1ccc(N2CCCC2)c(C(=O)Nc2ccccc2)c1	-23.5%
Cc1ccc(S(=O)(=O)N2CCC(C(=O)OCCOc3ccccc3)CC2)cc1C	-28.2%
CCN1C(=O)N[C@@H](c2ccccc2)[C@@H](C(=O)OC)[C@H]1C	4.69%
O=C(CNc1cccc(S(=O)(=O)N2CCOCC2)c1)N1CCc2ccccc21	-4.96%
Cc1ccc(N2CCN(S(=O)(=O)N(C)C)CC2)cc1Cl	6.03%
CS(=O)(=O)N(CC(=O)N1CCCCC1)c1ccc2c(c1)OCO2	7.89%
CC1(C)S[C@@H]2C(C(=O)OCc3ccccc3)NC(=O)N2C1C(=O)OCc1ccccc1 (some centres unmarked)	-3.95%
O=C(NC(=O)c1ccc(C(F)(F)F)cc1)Nc1ccc(-c2cnco2)cc1	8.64%
NC(=O)NC(=O)COC(=O)c1ccc(OC(F)F)cc1	19%
Cc1nc2c(Br)c3nc(C(F)(F)F)[nH]c3c(Br)c2[nH]1	-4.86%
c1ccc2c(c1)OCC(CNCC1COc3ccccc3O1)O2 (centres unmarked)	3.12%
CN1CCSc2ccc(C(=O)NCc3ccccc3F)cc21	-12.7%
O=C(CSc1nnc(-c2cccnc2)n1Cc1ccco1)c1ccc(Cl)c(Cl)c1	-45.2%
COCc1cc(=O)n2[nH]c(-c3cccc(Br)c3)cc2n1	-24.2%
O=C(NCc1cccs1)C1CCCN(S(=O)(=O)c2cccs2)C1 (centres unmarked)	-3.12%
CCOc1ccc(S(=O)(=O)n2ccc(C)n2)c2ccccc12	11%
Cc1cccc(NC(=O)Cn2cnc3c(oc4nc5c(cc43)COC(C)(C)C5)c2=O)c1	-37.8%
Cc1c(NC(=O)NC(C)N2C(=O)C3C4C=CC(C4)C3C2=O)c(=O)n(-c2ccccc2)n1C (centres unmarked)	13%
O=C(O)Cn1c(=O)c(-c2ccccc2)nc2ccccc21	29.8%
